# From PMC4336329 (PLoS ONE, 2015)
# Hit rate of the full screen: of about 310,000 compounds, about 14,000 (4.5%) showed an effect of 50% or more. The effect is printed as a negative number. Some of the results follow.
# Target: human ether-à-go-go-related gene (hERG) potassium channel (human, UniProt Q12809)
# Experiment: primary screen, population patch clamp on CHO cells stably expressing hERG
# 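Also: peak tail current of the secondary pulse compared with the same well before compound.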
# human ether-à-go-go-related gene (hERG) potassium channel, sequence (Q12809 whole entry, looked up): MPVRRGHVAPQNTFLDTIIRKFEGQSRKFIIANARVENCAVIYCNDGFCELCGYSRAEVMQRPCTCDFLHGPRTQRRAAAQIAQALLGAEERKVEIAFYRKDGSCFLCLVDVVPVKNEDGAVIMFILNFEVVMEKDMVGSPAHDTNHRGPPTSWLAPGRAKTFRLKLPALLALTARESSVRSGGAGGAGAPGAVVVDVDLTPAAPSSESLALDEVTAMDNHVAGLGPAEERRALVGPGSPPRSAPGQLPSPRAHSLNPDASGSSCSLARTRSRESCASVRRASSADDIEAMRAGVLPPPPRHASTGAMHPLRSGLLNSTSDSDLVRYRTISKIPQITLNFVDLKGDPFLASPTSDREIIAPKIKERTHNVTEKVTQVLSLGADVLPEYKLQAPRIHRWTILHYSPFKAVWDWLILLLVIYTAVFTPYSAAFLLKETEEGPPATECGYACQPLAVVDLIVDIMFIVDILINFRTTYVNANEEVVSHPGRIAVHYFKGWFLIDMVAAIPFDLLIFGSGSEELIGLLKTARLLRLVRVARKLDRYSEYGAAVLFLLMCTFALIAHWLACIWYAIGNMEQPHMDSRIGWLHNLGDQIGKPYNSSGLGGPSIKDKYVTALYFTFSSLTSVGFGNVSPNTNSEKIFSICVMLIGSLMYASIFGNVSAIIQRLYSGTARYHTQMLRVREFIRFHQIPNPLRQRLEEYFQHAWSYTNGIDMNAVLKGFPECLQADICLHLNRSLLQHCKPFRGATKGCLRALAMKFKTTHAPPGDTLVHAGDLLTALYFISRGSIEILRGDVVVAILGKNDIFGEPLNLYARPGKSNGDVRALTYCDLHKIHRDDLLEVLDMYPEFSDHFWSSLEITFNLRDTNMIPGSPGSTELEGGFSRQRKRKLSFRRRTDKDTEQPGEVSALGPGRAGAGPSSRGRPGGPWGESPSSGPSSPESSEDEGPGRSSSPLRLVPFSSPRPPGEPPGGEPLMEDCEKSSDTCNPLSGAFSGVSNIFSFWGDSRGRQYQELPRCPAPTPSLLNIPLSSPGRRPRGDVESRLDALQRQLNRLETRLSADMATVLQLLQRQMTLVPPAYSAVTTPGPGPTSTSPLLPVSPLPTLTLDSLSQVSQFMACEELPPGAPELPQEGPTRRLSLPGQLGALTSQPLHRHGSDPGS
row,SMILES,"hERG current change (%, negative = inhibition) at 10uM [%]"
1,c1coc(-c2nc3c4c5c(sc4ncn3n2)CCCC5)c1,10.6
2,CCOc1ccc(NC(=O)C2C3C=CC4(CN(C(C(=O)OC)C(C)C)C(=O)C24)O3)cc1 (centres unmarked),9.85
3,O=C(COc1ccc(Cl)cc1)NCCS(=O)(=O)N1CCN(c2ccc(F)cc2)CC1,-29
4,CC(=O)c1c(C)[nH]c(C(=O)Nc2ccc(Cl)cc2)c1C,-9.14
5,COC(=O)C(NC(=O)c1ccc(F)cc1)(Nc1ncc(S(=O)(=O)c2ccc([N+](=O)[O-])cc2)s1)C(F)(F)F (centres unmarked),-52.9
6,Nc1nc(N2CCCCC2)c(C=O)c(N2CCCCC2)n1,-8.28
7,C(=C\c1ccccc1)/CN1CCN(Cc2nc(Cc3ccccc3)no2)CC1,-65.1
8,CCC(C)(C)n1nnnc1C(c1cc2ccc(OC)cc2[nH]c1=O)N1CCN(C2CCCCC2)CC1 (centres unmarked),-59.6
9,CCc1ccc(NC(=O)NCC2CCN(c3ccc(OC)cc3)C2)cc1 (centres unmarked),-6.79
10,COc1ccccc1CNC(=O)Cn1c(=O)oc2cc(Cl)ccc21,0.41
11,CCN(CC)c1ccc(NC(=O)c2ccco2)cc1,-20.5
12,CC(=O)Nc1cccc(NC(=O)COc2ccccc2C)c1,5.95
13,CC(=O)Nc1c(I)c(C(=O)N[C@H]2C(O)O[C@H](CO)[C@@H](O)[C@@H]2O)c(I)c(N(C)C(C)=O)c1I (some centres unmarked),1.81
14,CN(c1ccccc1C(=O)N1CCCC1)S(C)(=O)=O,-9.73
15,Cc1ccc(NC(=O)NCc2cccnc2)cc1C,7.98
16,NNC(=O)c1ccc(CSc2n[nH]c(=O)[nH]c2=O)cc1,5.23
17,O=C(CSc1ncn[nH]1)Nc1cccc(S(=O)(=O)N2CCCCCC2)c1,-77.1
18,Cc1ccc(/C=C/C2=NN(Cc3ccc(Cl)c(Cl)c3)C(=O)CC2)cc1,-1.61
19,COc1ccc(N=CC=C2OC(C)(C)C(C)(C)O2)cc1OC.Cl,-3.51

row,SMILES,"hERG current change (%, negative = inhibition) at 10uM [%]"
1,COc1ccc(OC)c(NC(=O)c2cc3c(=O)n4ccccc4nc3n2C)c1,-0.57
2,O=[N+]([O-])c1ccc(NC2CCCC2)cc1,-10.7
3,CCCCn1c(SCC(=O)NCc2ccco2)nc2cc(S(N)(=O)=O)ccc21,-7.32
4,COc1ccc(C(=O)NCc2nnc(SCC(=O)N3CCc4ccccc43)n2C2CCCCC2)cc1,9.92
5,CCCOc1ccc(CCCN=C(N)N)cc1Cl.O=S(=O)(O)O,1.02
6,COC(=O)c1ccc(Oc2nc(NC(C)C)nc(N(C)C)n2)cc1,12.5
7,C/C(=N\NC(=O)c1cc(C)[nH]n1)C(C)(C)C,18.2
8,Cc1ccc(NC(=O)CCN2C(=O)c3cccc([N+](=O)[O-])c3C2=O)c(Br)c1,2.1
9,CC(C)Sc1ncc(S(=O)(=O)c2ccccc2)c(=O)[nH]1,32.2
10,COc1ccccc1C(=O)Nc1ccnn1C1CCN(Cc2cnc(N(C)C)s2)CC1,-65
11,N/C(=N\OC(=O)COc1ccc(Br)cc1Cl)c1cccnc1,12.4
12,CC1=C2C3OC(=O)C(C)[C@@H]3CC[C@](C)(O)C2C2C3C4C5(C12)[C@H]1OC(=O)[C@@H](C)C1CC[C@]4(C)O[C@]5(C)[C@@H]3O (some centres unmarked),16.2
13,O=S(=O)(c1cc(Cl)ccc1Cl)N1CCCCC1,-7.55
14,CCCCN(C)CCCNC(=O)/C=C1\Sc2ccccc2NC1=O,-28.6
15,COC(=O)CSc1cnc2ccccc2n1,10.3
16,CCCCCC(=O)Nc1ccc(-c2nnc3n2CCCCC3)cc1,-5.53
17,S=c1[nH]nc(CNc2ccc(Cl)cc2)n1Cc1ccccc1,10.6
18,CC(OC(=O)c1ccc(S(=O)(=O)NCc2ccco2)cc1)C(=O)Nc1ncc(Cl)cc1Cl (centres unmarked),-1.25
19,CCC(C)(C)NC(=O)/C=C/c1ccccc1[N+](=O)[O-],-9.32

row,SMILES,"hERG current change (%, negative = inhibition) at 10uM [%]"
1,Cc1nn2c(-c3cccnc3)ccnc2c1-c1ccccc1,-5.4
2,CSc1nc2sc3c(c2c(=S)[nH]1)CC(C)(C)OC3,20
3,Cc1nnc(N/N=C/c2cccs2)[nH]c1=O,-6.59
4,O=C(CN1CCCc2ccccc21)N/N=C/c1ccc(F)cc1F,-2.52
5,CC1Sc2ccc(S(=O)(=O)NCCc3ccccc3)cc2NC1=O (centres unmarked),12.5
6,Cc1ccc(OCCOCCOc2cccc3cccnc23)c(Br)c1,2.64
7,Cc1cc2c(s1)NC(=O)CN=C2c1cccs1,9.61
8,CCCCc1ccc(NC(=S)NCCc2ccc(S(N)(=O)=O)cc2)cc1,9.1
9,CCCNC(=O)OC[C@H]1O[C@H](CCO/N=C/C[C@@H]2C=C[C@H](OC(C)=O)[C@@H](COC(C)=O)O2)C=C[C@@H]1Oc1ccc(OC)cc1,-59.7
10,O=C(CSCc1ccc([N+](=O)[O-])cc1)NC1CC1,-29.7
11,CCOC(=O)C(=CNc1cccc(C)c1C)C(=O)OCC,16
12,NC(=O)C1CCN(S(=O)(=O)c2cccc(C(=O)O)c2)CC1,4.59
13,O=[N+]([O-])c1ccc(Sc2ccc(Cl)c(Cl)c2)nc1,-11.1
14,O=C1NC(c2ccc(Br)cc2)Nc2sc3c(c21)CCC3 (centres unmarked),-45.7
15,O=C(O)c1ccc(NS(=O)(=O)c2cccc(S(=O)(=O)c3ccc(Cl)c(Cl)c3)c2)cc1,-2.9
16,COC(=O)c1cccc(Cn2cc([N+](=O)[O-])cn2)c1,8.41
17,COc1cc2cc(CN(CCN3CCOCC3)C(=O)Nc3ccc(F)cc3)c(=O)[nH]c2cc1OC,-28.6
18,COc1ccc(CNC(=O)c2cccc3c2C(=O)N(CC2CCCO2)C3)cc1 (centres unmarked),-34.5
